Test results reported in the supplement of paper PMC3334620.
The full ranking holds about 33,000 sequences; the median of “E-score (-0.5 to 0.5)” is about -0.035, and the highest 2% start at about 0.34. The list shows a part of the results.

target: T1, Mot3 (UniProt P54785); assay: PBM E-score (8-mer binding enrichment) (E-score (-0.5 to 0.5)); higher = stronger / more preferred TF binding; most listed sequences are background and not binding sites; conditions: protein concentration: 200 nM; construct: GST-full length
T1 sequence: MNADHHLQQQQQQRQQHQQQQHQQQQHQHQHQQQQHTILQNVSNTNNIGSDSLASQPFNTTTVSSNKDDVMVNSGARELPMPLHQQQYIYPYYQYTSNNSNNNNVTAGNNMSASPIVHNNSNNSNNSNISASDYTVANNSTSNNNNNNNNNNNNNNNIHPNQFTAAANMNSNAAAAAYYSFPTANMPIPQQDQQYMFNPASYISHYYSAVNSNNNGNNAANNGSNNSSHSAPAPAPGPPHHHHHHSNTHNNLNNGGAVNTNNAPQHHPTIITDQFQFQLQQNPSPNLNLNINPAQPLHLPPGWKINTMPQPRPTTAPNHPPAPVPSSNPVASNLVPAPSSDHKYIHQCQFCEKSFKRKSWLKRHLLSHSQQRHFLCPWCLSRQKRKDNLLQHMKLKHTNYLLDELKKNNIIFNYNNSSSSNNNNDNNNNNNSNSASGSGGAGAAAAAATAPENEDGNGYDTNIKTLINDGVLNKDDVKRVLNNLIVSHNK
Outline: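 GST-tagged yeast TFs (full-length or DNA-binding domain) were made by PURExpress in vitro transcription/translation and applied at about 100-200 nM to universal all-10-mer Agilent arrays. The arrays were made double-stranded by primer extension, on fresh or once-stripped slides. Bound protein was detected with fluorescent anti-GST, and scans were normalised with masliner. Each ungapped eight-base word, pooled with its reverse complement, received an E-score (modified Wilcoxon-Mann-Whitney statistic) from the Universal PBM Analysis Suite.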

| Sequence | PBM E-score |
| --- | --- |
| CGATCGCA | -0.0487 |
| TCTCAGCA | -0.0977 |
| ATATCCGG | -0.00421 |
| CCTGGTTA | 0.0286 |
| ACAAATTG | 0.0261 |
| TGGCCACA | -0.096 |
| GTACGCGA | 0.237 |
| GCTATCAC | -0.0898 |
| ACGTCCTA | -0.0361 |
| GAACGCAC | 0.154 |
| CAAAGACA | 0.162 |
| ATCCGTTA | 0.0585 |
| AGTAATCA | 0.104 |
| AGGATGCA | -0.0683 |
| CGACCGAC | 0.0437 |
| TGGGCGAA | -0.18 |
| GAACCGGA | -0.0781 |
| TATTCGGA | 0.0326 |
| ATTAGCGC | -0.0551 |
| ACCCGCCT | -0.118 |
| AACAGTTG | -0.0428 |
| AAACGTAG | 0.15 |
| AAGGACTC | -0.217 |
| ACGGCATA | 0.0107 |

| Sequence | PBM E-score |
| --- | --- |
| ACCTTTTG | 0.123 |
| CTCCAGTC | -0.336 |
| AGTGAGGG | -0.265 |
| CGGAAACG | 0.00102 |
| TCGAGCCA | -0.0914 |
| ATCCACTC | -0.0433 |
| CTACAAAC | 0.174 |
| CCTCAACG | -0.174 |
| GACCCCCA | -0.371 |
| ATCATTCC | -0.194 |
| CTTCGTAC | 0.0353 |
| ACCTAACT | -0.0441 |
| AGGTGAAC | -0.0992 |
| GATGTGGA | -0.133 |
| GAATCCGA | -0.0795 |
| AACTTTTG | 0.185 |
| GGCTATAC | -0.0842 |
| CAGCATTA | 0.0139 |
| AAGCACAA | 0.188 |
| CTAGCCAG | -0.0919 |
| AATCTCGC | 0.0121 |
| GCAATTAA | 0.0812 |
| AAGGAGAG | -0.171 |
| CTATACTA | 0.0877 |

| Sequence | PBM E-score |
| --- | --- |
| AGACCAAA | -0.193 |
| CAAACATA | 0.111 |
| ATGTTCGG | -0.0775 |
| ACGTGATC | 0.0294 |
| TGACGTCA | -0.00588 |
| AAACCATG | -0.04 |
| GTCCTAGA | -0.0721 |
| CTGCTGAC | 0.0167 |
| CTAATCTA | 0.0529 |
| GAACACGC | 0.2 |
| AGAACAGC | 0.108 |
| ATCATAGC | 0.0333 |
| GAACTACC | 0.0334 |
| AAGTGCCC | -0.177 |
| CTATGGGA | -0.187 |
| GACGATCC | -0.0936 |
| ACGCGGCG | 0.11 |
| ACCTTTCA | -0.0642 |
| ATATTGTC | -0.136 |
| GCCCAACC | -0.0528 |
| CAGACACG | 0.087 |
| CTCCAATC | -0.113 |
| ATGCTAAG | -0.0299 |
| AACGTGTG | 0.128 |

| Sequence | PBM E-score |
| --- | --- |
| AAGAGCCT | 0.0133 |
| CTGATTGC | -0.0147 |
| GATACAGC | -0.158 |
| ACGCTCAC | -0.0704 |
| GTCAGATA | -0.0988 |
| CTCGGAGA | -0.205 |
| ATATCTAA | 0.0848 |
| AAATCGGG | -0.0585 |
| TCTTAAGA | -0.0988 |
| ATGCTGCA | 0.088 |
| ACTTTTCT | -0.0827 |
| GCCCCCCA | -0.345 |
| AAACAGTT | 0.0645 |
| GATTGGCC | -0.2 |
| GCTACAGC | -0.167 |
| ACTGCCGA | -0.0148 |
| CACACAAC | 0.199 |
| AGTAGCAT | -0.0628 |
| AAACTTGA | 0.0965 |
| ACGCACTC | 0.0335 |
| AGTTGCAA | 0.00053 |
| AAGACTCA | -0.24 |
